The text below walks through data of article PMC4336329 (PLoS ONE, 2015).

Hit rate of the full screen: of about 310,000 compounds, about 2,200 (0.71%) showed an effect of 50% or more. Effects have a minus sign here. This is one part of the list.

human ether-à-go-go-related gene (hERG) potassium channel, sequence (Q12809 whole entry, looked up): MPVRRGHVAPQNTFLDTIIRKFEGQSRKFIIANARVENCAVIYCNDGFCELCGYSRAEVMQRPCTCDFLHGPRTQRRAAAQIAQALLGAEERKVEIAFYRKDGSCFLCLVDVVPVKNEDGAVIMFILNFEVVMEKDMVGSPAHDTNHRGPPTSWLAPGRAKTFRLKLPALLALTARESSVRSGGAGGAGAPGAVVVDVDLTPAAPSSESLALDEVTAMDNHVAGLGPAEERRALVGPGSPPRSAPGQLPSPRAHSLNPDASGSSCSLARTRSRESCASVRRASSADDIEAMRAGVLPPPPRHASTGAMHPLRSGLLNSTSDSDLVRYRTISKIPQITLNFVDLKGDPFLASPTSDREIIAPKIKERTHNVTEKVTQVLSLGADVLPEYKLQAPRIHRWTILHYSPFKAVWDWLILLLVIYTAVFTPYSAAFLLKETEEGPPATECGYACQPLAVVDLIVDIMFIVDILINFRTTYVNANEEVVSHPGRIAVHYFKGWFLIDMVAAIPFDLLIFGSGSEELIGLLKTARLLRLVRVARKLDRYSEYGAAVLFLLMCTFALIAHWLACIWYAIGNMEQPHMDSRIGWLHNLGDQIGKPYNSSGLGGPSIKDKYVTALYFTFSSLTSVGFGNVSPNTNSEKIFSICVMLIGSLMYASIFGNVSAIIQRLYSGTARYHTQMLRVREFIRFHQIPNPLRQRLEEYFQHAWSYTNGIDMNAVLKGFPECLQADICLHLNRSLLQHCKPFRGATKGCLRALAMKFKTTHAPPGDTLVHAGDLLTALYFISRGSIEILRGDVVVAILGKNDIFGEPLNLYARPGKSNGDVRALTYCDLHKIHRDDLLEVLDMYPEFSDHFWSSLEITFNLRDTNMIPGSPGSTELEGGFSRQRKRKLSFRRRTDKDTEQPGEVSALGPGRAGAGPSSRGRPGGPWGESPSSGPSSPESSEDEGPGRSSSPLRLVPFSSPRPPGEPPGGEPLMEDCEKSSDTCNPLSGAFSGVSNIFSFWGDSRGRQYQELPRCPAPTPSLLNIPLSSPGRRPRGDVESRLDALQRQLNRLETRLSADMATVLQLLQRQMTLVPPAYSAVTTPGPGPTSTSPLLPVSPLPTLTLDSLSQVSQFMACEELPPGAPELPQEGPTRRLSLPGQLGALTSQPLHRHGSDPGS

This assay addresses human ether-à-go-go-related gene (hERG) potassium channel (human, UniProt Q12809). The assay can be described thus: primary screen, population patch clamp on CHO cells stably expressing hERG.
For `[Cl-].c1ccc(Cc2cc[n+](Cc3ccccc3)cc2)cc1`, the “hERG current change (%, negative = inhibition) at 1uM” value was determined as 16.1%.

In the case of `CC12CCC(C(=O)Nc3ccc(SC(F)F)cc3)(CC1=O)C2(C)C` (centres unmarked), the “hERG current change (%, negative = inhibition) at 1uM” value is given as -12.1%.

For the compound `O=C(O)c1cn(-c2ccc(F)c(F)c2)c2c(F)c(F)c(F)c(F)c2c1=O`, the “hERG current change (%, negative = inhibition) at 1uM” value is listed as -5.15%. Regarding `CN1C(=O)C(O)(CC(=O)c2ccc3c(c2)OCO3)c2ccccc21` (centres unmarked), the “hERG current change (%, negative = inhibition) at 1uM” value is recorded as 1.98%. Take `O=C(CSc1nnnn1-c1ccccc1)NC(=O)Nc1ccc2c(c1)OCCO2`: the “hERG current change (%, negative = inhibition) at 1uM” value came out at 13.5%.

On to `CCOc1ccccc1CN1CCC(N2CCC(C(=O)NC3CC3)CC2)CC1`, for which the “hERG current change (%, negative = inhibition) at 1uM” value is recorded as 16.8%. `Cc1cc(NC(=O)c2ccc(Br)c(S(=O)(=O)N3CCCC3)c2)no1`: the “hERG current change (%, negative = inhibition) at 1uM” value was found to be 2.53%. `CC1CCC(NC(=O)c2ccc3c(c2)OCO3)CC1` (centres unmarked): the “hERG current change (%, negative = inhibition) at 1uM” value is on record as 17.2%. As for `O=C(NCCc1ccc(C(F)(F)F)cc1)C1CCC(=O)N(CCCN2CCCC2=O)C1` (centres unmarked), the “hERG current change (%, negative = inhibition) at 1uM” value is 17.3%. Regarding `Oc1ccc(Cl)cc1C=Nc1ccc2c3c(cccc13)CC2`, the “hERG current change (%, negative = inhibition) at 1uM” value is listed as 11.9%. For the compound `CCCCCSc1nc2c(cnn2-c2ccccc2)c(=O)[nH]1`, the “hERG current change (%, negative = inhibition) at 1uM” value came to 9.56%. The result for `O=C(Cc1c[nH]c2ccccc12)Nc1nc2ccccc2[nH]1` reads -5.65%; that for `COc1ccc(CNc2nc3nc(C)cc(C)n3n2)cc1`, 3.05%; that for `Cc1ccc(C(=O)Nc2cc3c(cc2Cl)OCCCO3)cc1`, 13.4%. On to `COC(=O)c1c(O)ccc(Oc2ccccc2)c1C(=O)OC`, for which the “hERG current change (%, negative = inhibition) at 1uM” value was 9.38%. For `CCOCc1c(C(=O)Nc2cc(OCC)c(N3CCOCC3)cc2OCC)oc2ccccc12`, the “hERG current change (%, negative = inhibition) at 1uM” value turned out to be 9.59%. Consider `COc1ccc2c(c1)C(=NNC(=O)c1ccccn1)c1cc(OC)ccc1-2`, for which the “hERG current change (%, negative = inhibition) at 1uM” value is 11.2%. In the case of `CCN(Cc1ccccc1)CC(O)COC(c1ccc(OC)cc1)c1ccc(OC)cc1` (centres unmarked), the “hERG current change (%, negative = inhibition) at 1uM” value is -32.9%. `N#CCSc1nc(-c2ccccc2)c2cc(Cl)ccc2n1`: the “hERG current change (%, negative = inhibition) at 1uM” value is 8.61%. Take `CC(C)N(CCc1ccncc1)C(=S)Nc1ccc(F)c(Cl)c1`: the “hERG current change (%, negative = inhibition) at 1uM” value is given as 0.9%.

As for `COCCNCc1ccc(C(C)C)cc1.Cl`, the “hERG current change (%, negative = inhibition) at 1uM” value came to 9.91%. As for `CCOc1ccc(C(=O)Nc2cccc3nsnc23)cc1[N+](=O)[O-]`, the “hERG current change (%, negative = inhibition) at 1uM” value was -3.24%. As for `Cc1cc(C(=O)NNC(=S)NCC(C)C)cs1`, the “hERG current change (%, negative = inhibition) at 1uM” value was -2.08%. Consider `C[n+]1cccc(C2C(C#N)=C(N)Oc3c2ccc2ccccc32)c1.[I-]` (centres unmarked), for which the “hERG current change (%, negative = inhibition) at 1uM” value amounted to 14.4%.

Take `O=C(Nc1cccc(Cl)c1)OCc1cn(-c2ccc(Cl)cc2)nn1`: the “hERG current change (%, negative = inhibition) at 1uM” value is -1.66%. For `O=C(O)CCC(=O)Nc1ccccc1C(=O)N1CCN(c2ccc(Cl)cc2)CC1` the value was 8.54%. On to `CCN(CC)CCSc1nc(O)c(-c2ccccc2)c(=O)[nH]1.Cl`, for which the “hERG current change (%, negative = inhibition) at 1uM” value turned out to be 5.05%. For `COC(=O)c1ccc(CS(=O)(=O)c2ccc(F)cc2)o1` the value was 17.6%.

With `Cc1ccc(NC(=O)N2C3CCCC2CC(NC(=O)C(C)(C)C)C3)cc1` (centres unmarked), the “hERG current change (%, negative = inhibition) at 1uM” value was 10.8%. The result for `O=C1CNC(=S)N1CCCc1ccccc1` reads 9.3%; that for `COc1ccc(NC(=O)c2cn(-c3ccccc3)nc2SC)cc1`, -1.72%; that for `O=C(CN1C(=O)CCC1=O)Nc1cccc(NC(=O)CN2C(=O)CCC2=O)c1`, 13.9%. Consider `CC1(C)S[C@@H]2[C@H](NC(=O)C(NC(=O)N3CCNC3=O)c3ccccc3)C(=O)N2[C@H]1C(=O)O` (some centres unmarked), for which the “hERG current change (%, negative = inhibition) at 1uM” value is listed as 9.81%. For the compound `O=C(CNc1ccc(Cl)cc1)NNC(=S)NCc1ccccc1`, the “hERG current change (%, negative = inhibition) at 1uM” value worked out at 5.46%. For the compound `Fc1cc(NC(=S)NCc2ccc(CNC(=S)Nc3ccc(Cl)c(F)c3)cc2)ccc1Cl`, the “hERG current change (%, negative = inhibition) at 1uM” value came to 11.3%. For `CCCC(C)C(=O)Nc1cc([N+](=O)[O-])ccc1F` (centres unmarked), the “hERG current change (%, negative = inhibition) at 1uM” value is given as 0.831%.

With `Cc1ccc(C(=O)C2CCNCC2)cc1.Cl`, the “hERG current change (%, negative = inhibition) at 1uM” value is reported as 3.9%. Turning to `COCCn1c(SCC(=O)c2c(N)n(C3CC3)c(=O)[nH]c2=O)nnc1-c1cccc(C)c1`, the “hERG current change (%, negative = inhibition) at 1uM” value is listed as 8.76%. `COc1ccccc1Nc1c([N+](=O)[O-])cc(C)cc1[N+](=O)[O-]`: the “hERG current change (%, negative = inhibition) at 1uM” value is 13.6%. Consider `CC(=O)OC(C)(C)/C=C/C(=O)C(C)(O)C1[C@H](O)C[C@@]2(C)C3CC=C4C(CC[C@@H](O)C4(C)C)[C@]3(CO)C(=O)C[C@]12C` (some centres unmarked), for which the “hERG current change (%, negative = inhibition) at 1uM” value is recorded as 16.3%. As for `CNn1cnc2ccsc2c1=O`, the “hERG current change (%, negative = inhibition) at 1uM” value was 13.1%. Regarding `COCC(=O)N/N=C\c1cccc(OC)c1OC/C=C/c1ccccc1`, the “hERG current change (%, negative = inhibition) at 1uM” value is 6.63%. In the case of `COc1cc(OC)c(OC)cc1/C=C/C(=O)c1ccc(NS(=O)(=O)c2ccc(C)cc2)cc1`, the “hERG current change (%, negative = inhibition) at 1uM” value was 4.96%. Regarding `CC(C)CC(NC(=O)C1CCC(C)CC1)C(=O)NCc1ccco1` (centres unmarked), the “hERG current change (%, negative = inhibition) at 1uM” value is 4.11%. For the compound `CC(NCC1COc2ccccc2O1)C(=O)NCc1ccccc1.O=C(O)C(=O)O` (centres unmarked), the “hERG current change (%, negative = inhibition) at 1uM” value is recorded as 2.75%.

On to `COc1ccc(C(=O)NC2CC2)cc1OC1CCN(Cc2cc(C)c(C)cc2C)CC1`, for which the “hERG current change (%, negative = inhibition) at 1uM” value is recorded as -74.1%.

`CCCCCC(=O)Nc1ccc(N2CCOCC2)c(S(=O)(=O)Nc2ccc(OC)cc2)c1`: the “hERG current change (%, negative = inhibition) at 1uM” value is listed as -15.4%. For `COc1ccc(S(=O)(=O)N2CCOCC2)cc1NC(=O)CSc1nnc(N)s1` the value was -6.74%. On to `NS(=O)(=O)c1ccc(CNC(=O)Cc2ccc(S(=O)(=O)N3CCOCC3)s2)cc1`, for which the “hERG current change (%, negative = inhibition) at 1uM” value is -3.3%. For `CC1CC(C)CN(S(=O)(=O)c2ccc(NC(=O)C3CC(=O)N(Cc4ccccc4)C3)cc2)C1` (centres unmarked) the value was 17.7%.

For the compound `CC1C(=O)N2CCCc3cc(S(=O)(=O)N4CCCCC4)cc1c32` (centres unmarked), the “hERG current change (%, negative = inhibition) at 1uM” value was found to be 9.8%. As to `COc1ccc(NS(=O)(=O)c2cccc(C(=O)N/N=C/c3ccccn3)c2)cc1`, the “hERG current change (%, negative = inhibition) at 1uM” value was 11.3%. On to `Cc1ccc(/C=N/NC(=O)c2ccc(C(=O)N/N=C/c3ccc(C)s3)o2)s1`, for which the “hERG current change (%, negative = inhibition) at 1uM” value is given as 15.5%.

As for `COc1cc2[nH]c(=O)n(C3CCCCC3)c(=O)c2cc1OC`, the “hERG current change (%, negative = inhibition) at 1uM” value is listed as 11%. Take `CC(=O)N1CC(C)Oc2ccc(S(=O)(=O)Nc3ccc(Cl)cn3)cc21` (centres unmarked): the “hERG current change (%, negative = inhibition) at 1uM” value is listed as 10.6%. For the compound `O=C(NC(N1CCOCC1)C(Cl)(Cl)Cl)c1ccc(Br)cc1` (centres unmarked), the “hERG current change (%, negative = inhibition) at 1uM” value was found to be 10.9%.
